This is an account of results in PubChem BioAssay AID1963576 (National Center for Advancing Translational Sciences (NCATS), 2024).

In all, about 46,000 compounds went through this assay and about 60 (0.1%) were called active. Another 3% or so got no clear call; they are omitted. Calls follow the shape of the dose curve; as a rule, active = well fitted inhibition curve with a large enough effect; inconclusive = small, poorly fitted or top-dose-only effect; inactive = no such curve, though single readings can be large or run the other way. This is one part of the list.

The assay in a line: Primary qHTS assay for Inhibitors of ovarian cancer metastasis using an organotypic tumor microenvironment (TME) model. Also: nearly all actives have a fitted effect of over 65% in size.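 As to activity change, negative = inhibition: plate controls were DMSO wells for no effect and tomatine positive control wells for full effect.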 The conditions noted are these: SKOV3ip1-GFP adhesion/invasion on 3D omental model, fluorescence; series mostly up to 45.8 µM; activity change, negative = inhibition: at the top concentration. In outline: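 Adhesion/invasion was scored as fixed GFP-labeled SKOV3ip1 cell counts (488/509 nm), normalized to DMSO and tomatine controls. Cancer cells in serum-free medium, with four compound doses (0.36-46 umol/L), sat 2 hr at RT then 16 hr at 37 C on a 48 hr fibroblast/mesothelial/ECM culture.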
Regarding `COc1ccc(-c2nc3scc(CCNS(=O)(=O)c4cccs4)n3n2)cc1`, the molecule was classed as inactive.
For the molecule `CCS(=O)(=O)N1CC(=O)N(c2cc(Cl)ccc2C)C(C)(C(=O)NC2CCCCCC2)C1` (configuration not stated), the “activity change, negative = inhibition” value was inactive: -21.2%.
On the same count and under the same terms, the value for `CN1C(=O)C[C@H](C(=O)N[C@@H](Cc2cnc[nH]2)C(=O)N2CCC[C@@H]2C(N)=O)NC1=O` was inactive: -1.49%; that for `CCCCCOC(=O)CSc1nc2sc3c(c2c(=O)n1Cc1ccccc1)CC(C)(CC)OC3` (configuration not stated) was inactive: -1.5%; that for `Cc1cc2c(cc1S(=O)(=O)CCC(=O)N1CCN(c3ccccc3)CC1)OCC(=O)N2` was inactive: -12.8%.
Regarding `COC(=O)c1ccc(NC(=O)c2c(-c3ccccc3)c(-c3ccccc3)nn(C)c2=O)cc1`, the “activity change, negative = inhibition” value is inactive: -5.69%.
As for `O=C(Nc1ccc2c(c1)CCCN2C(=O)c1cccs1)c1ccccc1C(F)(F)F`, the “activity change, negative = inhibition” value was inactive: -4.13%.
Consider `COC1=C(OC)C(=O)C(CC=C(C)CCC=C(C)CCC=C(C)CCC=C(C)CCC=C(C)CCC=C(C)CCC=C(C)CCC=C(C)CCC=C(C)CCC=C(C)C)=C(C)C1=O`, for which the “activity change, negative = inhibition” value is inactive: 4.48%.
For `CCOC(=O)Cc1ccc(NC(=O)Nc2nnc(N3CCCCC3C)s2)cc1` (configuration not stated), the molecule was classed as inactive.
For the molecule `CCOC(=O)c1ccc(NC(=O)Nc2cc3c(cc2N2CCCCC2)n(CC)c(=O)n3CC)cc1`, the outcome was inactive.
On the same count and under the same terms, the value for `CCc1ccc(Nc2nc(-c3cc4cccc(OC)c4oc3=O)c(CC)s2)cc1` was “inactive”.
For `Cc1cccc(OC(=O)c2snnc2C)c1C`, the “activity change, negative = inhibition” value was inactive: -40.6%.
In the case of `CCCN(C(=O)c1cc2c(s1)-c1ccccc1OC2)c1ccc(C(C)C)cc1`, the molecule was called inactive.
Still for that read-out and setting: the same measure for `CCC(=O)N1CCc2cc(Br)cc(S(=O)(=O)NCCc3ccc(C)cc3)c21`: “inactive”.
On to `CCC(=O)N1c2ccc(S(=O)(=O)CCC(=O)NCc3ccc(OC)cc3)cc2CC1C` (configuration not stated), for which the “activity change, negative = inhibition” value is inactive: -8.73%.
Same read-out and setting: the value for `CCOC(=O)C1CCN(C(=O)c2ccc(C)c(NC(=O)c3nsc4ccccc34)c2)CC1` was inactive: 2.45%.
For the molecule `Cc1ccc(NC(=O)C2CCC(CNS(=O)(=O)c3cccs3)CC2)cc1C` (configuration not stated), the molecule was called inactive.
For the molecule `O=C(Nc1ccc(F)c(F)c1)c1ccc(=O)n(Cc2ccc(F)cc2)c1`, the “activity change, negative = inhibition” value is inactive: -23.4%.
With `COc1ccc(NC(=O)COCc2cc(-c3ccco3)on2)cc1Cl`, the molecule was called inactive.
With `CC1=C(C(=O)Nc2cc(C)cc(C)c2)C2(CCCCC2)OC1=O`, the “activity change, negative = inhibition” value was inactive: -1.98%.
Regarding `CC(C)c1ccc(S(=O)(=O)NCc2nc3cccnc3n2Cc2ccc(F)cc2)cc1`, the “activity change, negative = inhibition” value was inactive: -6.59%.
The same measure, in the same setting: the same measure for `Cc1cc(C)c(NC(=O)CCN2CCCCC2)c(C)c1`: inactive: -12.9%.
Turning to `O=C(Cn1c(=O)c2ccccc2n(CC(=O)Nc2ccccc2F)c1=O)NCCc1ccccc1`, the call was inactive.
With `CCc1cccc(C)c1Nc1c(-c2cccs2)nc2ncccn12`, the “activity change, negative = inhibition” value is inactive: 17.8%.
Still for that read-out and setting: the same measure for `Cc1cc(C)c(S(=O)(=O)NCC(c2ccco2)S(=O)(=O)c2ccccc2)c(C)c1` (configuration not stated): inactive: -14.3%.
The same measure, in the same setting: the value for `O=S(=O)(Nc1ccc(OC(F)(F)F)cc1)c1ccc(N2CCCCS2(=O)=O)cc1` was inactive: 6.59%.
On the same count and under the same terms, the same measure for `COc1cccc(C2C(=O)N(C3CCCCC3)CC(=O)N2CCc2ccc(OC)c(OC)c2)c1` (configuration not stated): inactive: 2.53%; for `Nc1nc(N)c(S(=O)(=O)c2ccccc2)c(Nc2ccccc2)n1`: inactive: 5.82%.
Turning to `Cc1nc2nc(CNC(=O)OC(C)(C)C)nn2c(C)c1CCC(=O)NCc1ccccc1Cl`, the “activity change, negative = inhibition” value was inactive: 2.03%.
Same read-out and setting: the value for `COc1ccc(CCNC(=O)CCc2c(C)c3ccc(O)c(C)c3oc2=O)cc1` was inactive: 1.16%; that for `COc1cc(OC)c(NC(=O)CCc2nc(C3=CCN(Cc4cccc(Cl)c4)CC3)no2)cc1Cl` was inactive: -0.277%.
As for `CCc1ccc(-n2c(=O)c3sc4ccccc4c3n(CC(=O)NC3CCCC3)c2=O)cc1`, the molecule was called inactive.
As for `Cc1ccc(NC(=O)c2oc3ccccc3c2NC(=O)C2CCCCC2)cc1`, the “activity change, negative = inhibition” value was inactive: -20.3%.
Consider `COc1ccc(-c2cc(C(=O)Oc3ccc(Br)cc3)c3ccccc3n2)cc1`, for which the “activity change, negative = inhibition” value is inactive: 5.27%.
`CCc1ccc2c(c1)c(=O)c(S(=O)(=O)c1ccc(F)cc1)cn2CC(=O)Nc1ccccc1OC`: the molecule was called inactive.
On the same count and under the same terms, the value for `COCCCNC(=O)CN1C(=O)c2c(c3ccccc3n2C)C1c1ccc(OC)cc1` (configuration not stated) was “inactive”.
Consider `COc1ccc(-c2noc(CSCC(=O)Nc3ccc(C)cc3Br)n2)cc1OC`, for which the molecule was called inactive.
Take `COc1cccc(/C=C/c2nc(C#N)c(N(C)Cc3ccccc3)o2)c1`: the “activity change, negative = inhibition” value is inactive: 8.67%.
On the same count and under the same terms, the same measure for `CCCCSc1ncnc2c1sc1nc(N3CCOCC3)c3c(c12)CCCC3`: inactive: -0.799%; for `Cc1ccc(NC(=O)NCCc2c(C)nn(C)c2C)c(Cl)c1`: inactive: -1.68%.
Still for that read-out and setting: the same measure for `COc1cc(C(=O)NCc2ccc3c(c2)CCN3C(=O)c2ccncc2)cc(OC)c1OC`: inactive: 8.05%; for `Fc1ccc(CNc2nc3c(-c4ccc(F)cc4)nnn3c3ccccc23)cc1`: inactive: -6.98%; for `CCOc1ccc(CNC(=O)COc2cc(=O)n(C)c3ccccc23)cc1`: inactive: 5.54%.
For the molecule `CC1=C(C(=O)Nc2ccc(C)cc2)C(c2ccccc2Cl)n2nnnc2N1` (configuration not stated), the “activity change, negative = inhibition” value is inactive: -11%.
The same measure, in the same setting: the value for `Cc1ccc(NC(=O)c2cc(-c3ccc4c(c3)OCO4)on2)cc1` was inactive: 0.939%; that for `CCC(=O)N1CCc2cc(Br)cc(S(=O)(=O)CCC(=O)NCc3ccccc3)c21` was inactive: -1.1%; that for `COc1cccc(NC(=O)c2cc(CN3CCOCC3)on2)c1` was inactive: 21%.
